About 120 (0.25%) of roughly 48,000 compounds were called active. Another 4% or so got no clear call; they are omitted. The call rests on the fitted dose curve; in most records, active means well fitted activation curve with a large enough effect; inconclusive means small, poorly fitted or top-dose-only effect, or another doubt; inactive means no such curve, though single readings can be large or run the other way. This is one part of the list.
Test: Primary qHTS for Identification of Small Molecule Activators of Huntingtin-Antisense Promoter Activity; further: nearly all actives have a fitted effect of over 55% in size
Details: HEK293 HTT-AS promoter firefly luciferase reporter (activity 0% = vehicle and -100% = no light), 24 h; series mostly up to 57.5 µM; activity change, positive = activation: at the top concentration
How it was run: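 HEK293 Fluc reporter, 2,500 cells/well, 24 h pre-culture; cpds up to 57.5 uM final, 24 h 37 degrees C; Dual-Glo, 10 min RT; normalized vehicle = 0%, zero RLU = -100%.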

Activity change, positive = activation, inactive:
COc1ccc(S(=O)(=O)c2c(C(=O)c3ccc(C)c(C)c3)cnc3ccc(F)cc23)cc1 -63.8%
CC(C)c1ccc(OCC(=O)Nc2c(C(=O)c3ccc(F)cc3)oc3ccccc23)cc1 -12%
O=C(CN1CCSc2ccccc21)N1CCN(c2ccc(F)cc2)CC1 -23.5%
CCCN(Cc1cccs1)C(=O)Nc1cc(OC)ccc1OC -10.7%
Cc1ccc(N(C)C(=O)c2cc(S(=O)(=O)N3CCOCC3)cn2C)cc1 -14.6%
COc1ccc(CCNC(=O)CCCCn2c(=O)c3ccccc3n(Cc3ccccc3Cl)c2=O)cc1OC -20.3%
COc1ccccc1-c1noc(CCCC(=O)Nc2cc(C)ccc2C)n1 -14.1%
COc1ccc(C(=O)Nc2ccc(C(=O)OCc3cc(=O)n4nc(C5CC5)sc4n3)cc2)cc1 0%
Cc1ccc(-n2nc3c(N4CCC(C(=O)NCc5ccccc5Cl)CC4)nnc(C)c3c2C)cc1 -13.8%
CCOC(=O)c1c(C)[nH]c(C)c1S(=O)(=O)NCC(=O)N1CCN(c2ccccc2OC)CC1 10.6%
COc1ccc(OC)c(S(=O)(=O)NCCc2csc(-c3cccc(F)c3)n2)c1 3.21%
CCN(CC)C(=O)Nc1ccc2c(c1)N(Cc1ccccc1)C(=O)c1ccccc1S2 -12.9%
Cc1cc(=O)c2cc(C(=O)Nc3ccccc3C)ccc2[nH]1 -8.63%
CCOc1ccc(CNC(=O)CCCc2cn(C)c3ccccc23)cc1OC -27.7%
COC(=O)c1cc2sc(Cl)cc2n1Cc1cc(C)ccc1C 15.5%
Cc1ccc(-n2nc3c(=O)n(CC(=O)NCC(C)c4ccccc4)nc(C)c3c2C)cc1 (configuration not stated) -43.7%
COc1ccc(Cn2ccc3nc(C)c(C(=O)NCc4cccc(OC)c4)cc3c2=O)cc1 -13.7%
CCc1ccccc1NC(=O)Cn1c2ncccc2c(=O)n1-c1ccccc1 -23.3%
COc1cc(F)c(S(=O)(=O)Nc2c(C)n(C)n(-c3ccccc3)c2=O)cc1OC 5.4%
COC(=O)c1ccc(CSc2nnc3ccc4ccccc4n23)cc1 8.67%
COc1ccccc1Cn1cc(C(=O)c2ccc(C)cc2)c(=O)c2cc3c(cc21)OCCO3 -33.2%
CCn1cc2c(n1)-c1c(oc(C(=O)Nc3cccc(C(F)(F)F)c3)c1C)CC2 4.15%
Cc1ccc(-n2c(=O)c3cccnc3n2CC(=O)Nc2cc(Cl)ccc2C)cc1 -5.62%
O=c1cc(-c2ccccc2)n2c(SCc3c(F)cccc3Cl)nnc2[nH]1 9.97%
Cc1ccc(NC(=O)CN(C)S(=O)(=O)c2cnc[nH]2)cc1 2.63%
Cc1ccc(C)c(CN2C(=O)c3ccccc3S(=O)c3ccc(C(=O)N4CCN(c5cccc(Cl)c5)CC4)cc32)c1 (configuration not stated) -23.9%
Cc1ccc(NC(=O)Cn2c(=O)n(CCCCC(=O)NCc3ccccc3Cl)c(=O)c3ccccc32)cc1 -9.58%
COc1ccccc1OCC(=O)NCC(c1ccc(Cl)cc1)N1CCOCC1 (configuration not stated) -14.4%
CCCc1nn2c(=O)cc(COc3ccc(/C=C(\C#N)C(=O)Nc4ccccc4)cc3)nc2s1 -4.97%
COc1ccc(C(CC(=O)NCc2ccccc2Cl)N2Cc3ccccc3C2=O)cc1OC (configuration not stated) -10.8%
CC(C)CC(=O)NC1(C(F)(F)F)C(=O)Nc2c1c(=O)[nH]c(=O)n2-c1ccccc1 (configuration not stated) -1.29%
CCc1cccc(C)c1NC(=O)CN1CCCN(Cc2ccccc2Cl)S1(=O)=O -33.4%
COc1cc(C(=O)NC(c2ccc(Cl)cc2)c2cc(Cl)c3cccnc3c2O)cc(OC)c1OC (configuration not stated) -60.8%
CCOc1ccccc1NC(=O)C(CC)n1c(C(=O)OC)cc2occc21 (configuration not stated) -13.4%
COc1cc(C2c3c(-c4ccccc4O)n[nH]c3C(=O)N2Cc2ccco2)ccc1OCC(C)C (configuration not stated) -21.3%
COc1ccc(Nc2oc(/C=C/c3cccc(OC)c3)nc2C#N)cc1 21.9%
CCCn1c(=NC(=O)c2cc3ccccc3o2)c(C(=O)OCC)cc2c(=O)n3ccccc3nc21 0.647%
O=C(Cn1ncc2ccsc2c1=O)N1CCN(c2ccccc2F)CC1 -9.79%
CCCCN(CC)CCNC(=O)C1CCCN(S(=O)(=O)c2cccc3nsnc23)C1 (configuration not stated) 8.24%
O=S(=O)(c1ccc(-n2cnnn2)cc1)N1CCN(c2cccc(Cl)c2)CC1 -20.1%
Cc1c(C(=O)N2CCCCCC2)c(S(=O)(=O)N(Cc2ccccc2)C(C)(C)C)c(C)n1C -11.8%
CCOc1ccc(CN(C(=O)c2cc(=O)c3cc(C)cc(C)c3o2)C2CCS(=O)(=O)C2)cc1 (configuration not stated) -6.58%
COc1cc(NC(=O)CCc2c(C)nc3cc(-c4ccccc4)nn3c2C)cc(OC)c1OC -69.4%
Cc1ccc2c(c1)c(=O)c(C(=O)c1ccc3c(c1)OCO3)cn2Cc1ccc(Cl)cc1 -33%
CSc1ccc(/C=C/c2nc3ccccc3n2S(=O)(=O)c2cccc(Cl)c2)cc1 -70.3%
CCC(CC)C(=O)Nc1nnc(SCc2cc(=O)n3cccc(C)c3n2)s1 -37.4%
NC(=O)CC[C@@H]1NC(=O)[C@H](Cc2ccccc2)NC(=O)[C@H](Cc2ccc(O)cc2)NC(=O)CCSSC[C@@H](C(=O)N2CCC[C@H]2C(=O)N[C@@H](CCCN=C(N)N)C(=O)NCC(N)=O)NC(=O)[C@H](CC(N)=O)NC1=O -7.58%
CCOc1ccc(CN2C(=O)c3ccccc3Sc3ccc(C(=O)O)cc32)cc1 -25.8%
O=C(NCCc1ccc(Cl)cc1)C(=O)NCC(c1ccco1)S(=O)(=O)c1ccc(Cl)cc1 (configuration not stated) -25.7%
Cc1oc2ncnc(N3CCCCC3)c2c1C(=O)N1CCN(c2cccc(Cl)c2)CC1 -18.8%
CCCN1C(=O)C2(c3ccccc31)c1c(oc3ccc(F)cc3c1=O)C(=O)N2CCCOC(C)C (configuration not stated) -12.6%
c1coc(-c2nc3n(n2)C2(CCCCC2)[C@@H]2CCCC[C@@H]2N3)c1 19%
CCc1nonc1NC(=O)c1oc2ccc(Br)cc2c1C 10.4%
CCc1ccc(-n2c(=O)c3c4c(sc3n(CC(=O)N3CCC(C)CC3)c2=O)CCC4)cc1 -22.9%
Cc1ccc(NC(=O)C2CCCN(S(=O)(=O)c3cccc4cccnc34)C2)cc1 (configuration not stated) -23.7%
Cc1ccc(Cl)cc1NC(=O)c1oc2ccc(S(=O)(=O)N3CCCCC3)cc2c1C 0.744%
CCOC(=O)c1ccc(NC(=O)CSc2cc(=O)n(CC)c3ccccc23)cc1 -0.119%
Cc1ccc(S(=O)(=O)c2cn(Cc3cccc(C)c3)c3cc4c(cc3c2=O)OCO4)cc1 -5.8%
Cc1ccc(Cl)cc1NC(=O)c1oc2ccc(S(=O)(=O)N(C)C3CCCCC3)cc2c1C -12.7%
CC(=O)CSc1nnc2cc(C)c3cc(C)cc(C)c3n12 -11.2%
Cc1ccc(S(=O)(=O)N2CCC(C(=O)Nc3ccc(C)c(Cl)c3)CC2)cc1 -30.9%
COc1ccc(CCNC(=O)C(=O)NCC(c2cccs2)S(=O)(=O)c2ccc(C)cc2)cc1 (configuration not stated) -34.6%
O=C1c2[nH]nc(-c3ccccc3O)c2C(c2cccc(OCc3ccccc3)c2)N1CCO (configuration not stated) -11.7%
CCOC(=O)c1c(C)[nH]c(C)c1S(=O)(=O)N1CCN(c2cccc(C(F)(F)F)c2)CC1 -43.1%
CCN(CC)C(=O)Cn1c(=O)n(-c2ccc(Cl)cc2)c(=O)c2c3c(sc21)CCC3 -1.71%
COc1ccc(-n2nc(C)c3c(C(F)(F)F)cc(-c4cccnc4)nc32)cc1 -4.27%
Cc1cn2c(=O)cc(COC(=O)c3cccc(NC(=O)c4ccccc4C)c3)nc2s1 -14.5%
COc1ccc(C(=O)COC(=O)C(Cc2c[nH]c3ccccc23)NC(=O)c2ccc(C(C)(C)C)cc2)cc1 (configuration not stated) 2.38%
CCOC(=O)c1cc(OC(=O)c2ccccc2C)n(-c2ccccc2)n1 -2.03%
CC1(C)NC(=O)N(c2ccc([N+](=O)[O-])c(C(F)(F)F)c2)C1=O
COc1cccc(N2CCN(C(=O)CCS(=O)(=O)c3ccc4c(c3)oc(=O)n4C)CC2)c1 -5.49%
COCCCNC(=O)C1CCN(c2nc3ccc(C)cc3[nH]2)CC1 5.71%
CCN(C(=O)CSc1nc(-c2ccc(C(C)C)cc2)no1)c1cccc(C)c1 -21.9%
COc1ccc(OC)c(NS(=O)(=O)c2ccc(-c3cc(C)no3)s2)c1 -47.6%
COc1ccc(CNC(=O)CCCn2nc(C)c3c(C)n(-c4ccccc4)nc3c2=O)cc1 -10.7%
Cc1cccc(C(=O)Nc2nnc(S(=O)(=O)N(C)c3ccccc3C)s2)c1 -37.2%
Cc1ccc(-n2c(-c3ccco3)nc3c(cnn3-c3ccccc3Cl)c2=O)cc1 -12.2%
CCCCCCc1ccc(O)cc1O -1.64%
CC(C)c1cnc2c(c1SCC(=O)Nc1cccc(F)c1)c(=O)n(C)c(=O)n2C -24.3%
Cc1ccc(Cl)cc1Nc1nn2c(=O)c3ccc(C(=O)N4CCCC(C)C4)cc3nc2s1 (configuration not stated) -29.4%
CCn1cc2nc(SCc3cccc(Cl)c3)n(Cc3ccc(C)cc3)c(=O)c2n1 -1.41%
COc1ccc(CCNS(=O)(=O)c2cc(-c3cc(C)no3)ccc2C)cc1OC -11.4%
O=C(Nc1cccc(F)c1)C1CCN(S(=O)(=O)c2cccc3nsnc23)CC1 -16.6%
CN(C)c1ccc(CNC(=O)CCn2cccn2)cc1 -3.28%
CCc1ccc(CN2CCc3nc(N4CCN(CC)CC4)ncc3C2)cc1 -18.8%
Cc1ccc(CCNC(=O)c2ccc3c(c2)N(Cc2cccc(Cl)c2)C(=O)c2ccccc2S3(=O)=O)cc1 -7.47%
Cc1cc(C)cc(OC(C)C(=O)Nc2c(C(=O)c3ccccc3)oc3ccccc23)c1 (configuration not stated) -3.29%
O=C(Nc1cccc(C(F)(F)F)c1)C1CCCN1S(=O)(=O)c1cccc2nsnc12 (configuration not stated) -41.3%
CSc1ccc(C2c3c(oc4cc(C)cc(C)c4c3=O)C(=O)N2Cc2ccco2)cc1 (configuration not stated) 5.83%
CCCN(CCC)S(=O)(=O)c1ccc(C(=O)Nc2sc3c(c2C(=O)OC)CCN(CC)C3)cc1 -29.2%
Cc1ccc(OCC(=O)Nc2ccc3nc(SCC(=O)N4CCOCC4)sc3c2)cc1 0.0727%
COc1ccccc1NC(=O)CSc1ncc2c(n1)-c1cc(Cl)ccc1N(Cc1ccccc1)S2(=O)=O -25.8%

— PubChem BioAssay AID1508624 (National Center for Advancing Translational Sciences (NCATS), 2021)
